Assay results reported in PubChem BioAssay AID1508624 (National Center for Advancing Translational Sciences (NCATS), 2021).
The campaign covered roughly 48,000 compounds. About 120 (0.25%) were called active. About 4% were inconclusive and are not listed. The call rests on the fitted dose curve; in most records, active means well fitted activation curve with a large enough effect; inconclusive means small, poorly fitted or top-dose-only effect, or another doubt; inactive means no such curve, though single readings can be large or run the other way. The list shows a part of the results.

Assay: Primary qHTS for Identification of Small Molecule Activators of Huntingtin-Antisense Promoter Activity; further: nearly all actives have a fitted effect of over 55% in size
Details: HEK293 HTT-AS promoter firefly luciferase reporter (activity 0% = vehicle and -100% = no light), 24 h; series mostly up to 57.5 µM; activity change, positive = activation: at the top concentration
How it was run: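 HEK293 Fluc reporter, 2,500 cells/well, 24 h pre-culture; cpds up to 57.5 uM final, 24 h 37 degrees C; Dual-Glo, 10 min RT; normalized vehicle = 0%, zero RLU = -100%.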

Activity change, positive = activation, inactive:
CCC(=O)N1CCc2cc(S(=O)(=O)NC(C(=O)NCc3ccc(OC)cc3)C(C)C)ccc21 (stereo unspecified) 2.62%
COc1cccc(N2C(=O)CSC23C(=O)N(CC(=O)Nc2cc(C)ccc2C)c2ccccc23)c1 (stereo unspecified) -9.81%
COc1ccc(OC)c(CCNC(=O)CCCc2nnc3n(C)c(=O)c4sccc4n23)c1 7.85%
COc1ccc(CCNc2nc3c(c(=O)n(C)c(=O)n3C)n2Cc2ccc(F)cc2)cc1OC -41%
CCOC(=O)c1cc2c(=O)n3ccccc3nc2n(Cc2ccco2)c1=NC(=O)c1cc(C)cc(C)c1 -33.6%
COC(=O)c1ccc(NC(=O)c2nn(C)c3c2CS(=O)(=O)c2ccccc2-3)cc1 -14.3%
COc1ccc2[nH]cc(CCNC(=O)Nc3ccccc3C)c2c1 -16.4%
Cc1cc(C)c(NC(=O)c2sc3nc(C)cc(C)c3c2N)c(C)c1 -37.7%
COc1ccc(C)cc1NC(=O)CN1CCN(CC(=O)Nc2ccccc2F)CC1 8.49%
Cc1ccc2sc(N3CCN(C(=O)C4COc5ccccc5O4)CC3)nc2c1C (stereo unspecified) -19.4%
O=C(Nc1c(C(=O)N2CCN(c3ccc(F)cc3)CC2)oc2ccccc12)c1ccco1 -17.1%
COc1ccc(CCNC(=O)c2ccc(CS(=O)(=O)c3ccc(C)cc3)o2)cc1OC -31.8%
COc1cccc(N2CCN(S(=O)(=O)c3ccc(-c4cnc(C5CC5)o4)cc3)CC2)c1 -15.6%
CCOC(=O)C1CCCN(CCC(=O)Nc2ccc(OC)cc2OC)C1 (stereo unspecified) -13.1%
Cc1cccc(-n2ccnc2SCC(=O)Nc2ccccc2C(F)(F)F)c1 -15.1%
O=C(CSc1nc2ccccc2n1Cc1ccc(F)c(Cl)c1)N1CCN(c2ccc(F)cc2)CC1 -26.1%
COc1ccc(CNC(=O)CCc2c(C)nc3c(c2C)c(=O)n(C)c(=O)n3C)cc1 -6.08%
CCn1cc(C(=O)NCCc2ccccc2)c(=O)c2cc(S(=O)(=O)N3CCOCC3)ccc21 -12.8%
CCCc1nn2c(=O)cc(COC(=O)c3ccc(NC(=O)c4cccs4)cc3)nc2s1 -33.2%
CCc1ccc(NC(=O)CSC2=Nc3ccccc3C3=NC(CCC(=O)NCc4cccs4)C(=O)N23)cc1 (stereo unspecified) 9.37%
Cc1cccc(-n2cc(-c3ccccc3)nc2SCC(=O)Nc2ccccc2Cl)c1 -15.3%
Cc1ccc(C)c(NC(=O)C(C)N(c2ccccc2)S(C)(=O)=O)c1 (stereo unspecified) -9.69%
Cc1oc2ncn(CC(C)C)c(=O)c2c1C(=O)Nc1ccc(Cl)cn1 4.22%
O=C(NCc1ccccc1Cl)C1CCCN(c2nc3ccccc3n3cccc23)C1 (stereo unspecified) -31.6%
Cc1ccc(C)c(S(=O)(=O)NCC(c2ccc(N(C)C)cc2)N2CCOCC2)c1 (stereo unspecified) -16.5%
CCOc1ccc(CNCCNC(=O)c2nonc2N)cc1 -17.3%
COc1ccc(-n2c(-c3ccc(Cl)cc3)cc3c2CC(C)(C)CC3=O)c(OC)c1 -31.9%
CC1=C(C(=O)Nc2ccc(C)cc2C)C(c2ccc(C(C)C)cc2)n2nc(C(F)(F)F)nc2N1 (stereo unspecified) -32.6%
CCOC(=O)c1sc(NC(=O)c2nc(SC)ncc2Cl)c(C(=O)OCC)c1C 14%
COc1ccc(NC(=O)Nc2cn(CC(C)C)c(=O)c3ccccc23)c(OC)c1 -16.5%
O=C1C2=C(Nc3ccccc3SC2c2c(F)cccc2Cl)c2ccccc21 (stereo unspecified) 0.12%
O=C(NCCc1ccc(F)cc1)C(=O)NCC(c1cccs1)S(=O)(=O)c1cccs1 (stereo unspecified) -44.1%
COc1ccc(-c2cc(-c3ccccc3)nc3c2COc2ccc(Cl)cc2-3)cc1 1.06%
Cc1oc2ncn(C)c(=O)c2c1C(=O)N(C)c1ccccc1F -0.227%
CCN1C(=O)C(O)(c2c(C)[nH]c3ccccc23)c2ccccc21 (stereo unspecified) -6.83%
COc1ccc(NC(=O)CSC2=Nc3ccccc3C3=NC(CCC(=O)NCCc4ccccc4)C(=O)N23)cc1 (stereo unspecified) -5.36%
CC(C)(C)OC(=O)N1CCC(c2c(C(=O)N3CCN(C4CCCCC4)CC3)cnn2-c2cccc(Cl)c2)CC1 -23.5%
COC(=O)c1ccc(NS(=O)(=O)c2ccc3[nH]c4c(c3c2)CCCCC4)cc1 -30.3%
Cn1cc[nH]c1=S -0.826%
CCOC(=O)N1CCC(NC(=O)c2cnn(-c3cccc(C)c3)c2-n2cccc2)CC1 -17.1%
CC(=O)N1CCCc2cc(S(=O)(=O)N3CCC(C(=O)NC4CCCCC4)CC3)ccc21 -23.6%
CCc1nn(CC(=O)NCc2cccc(OC)c2OC)c(=O)c2cc3occc3n12 -4.77%
Cc1ccc(C(=O)COC(=O)C(Cc2c[nH]c3ccccc23)NC(=O)c2ccc(Br)cc2)cc1 (stereo unspecified) 3.88%
O=C(NCCCO)C(=O)Nc1c2c(nn1-c1ccc(F)cc1)CSC2 -9.94%
Cc1nnc(N2CCC(C(=O)NCc3ccc(N(C)C)cc3)CC2)c2nn(-c3ccccc3)c(C)c12 -17%
COc1ccc(NC(=O)C2=C(C)Nc3nc(SC)nn3C2c2cc(OC)ccc2OC)cc1 (stereo unspecified) -7.41%
O=C(CSc1nc2ccccc2n1Cc1cccc(Cl)c1)N1CCN(c2ccc(F)cc2)CC1 -18.5%
COc1ccc(OC)c(CNC(=O)Cn2nc(C)c3c(C)n(-c4ccccc4)nc3c2=O)c1 -5.26%
O=C(Nc1ccc(Cl)cc1)c1ccc2c(c1)N(Cc1ccccc1)C(=O)c1ccccc1S2(=O)=O -27.2%
Cc1cc2oc(C(=O)Nc3cccc(-c4nc5ccccc5o4)c3)c(C)c2cc1Cl -9.09%
CN(CC(=O)Nc1cccc(C#N)c1)S(=O)(=O)c1cc2c(cc1Cl)NC(=O)CO2 -29.4%
CCOc1ccccc1CNC(=O)CC(C)n1ccc(C)n1 (stereo unspecified) -12.8%
Cc1cccc(C)c1NC(=O)c1ccc2nc(CCc3ccccc3)oc2c1 -28%
CNC(=O)c1c(NC(=O)c2cc(=O)c3ccccc3o2)sc2c1CCC2 3.2%
CCCCNC(=O)CSc1c2c(nc3ccc(Cl)cc13)CCCC2 -13.6%
Cn1c(=O)c2sccc2n2c(CCCC(=O)Nc3ccc(F)c(F)c3)nnc12 -2.68%
COc1cccc(-c2nc(S(=O)(=O)c3ccccc3)c(NCc3ccccc3)o2)c1 10.9%
COc1cccc(-c2cc(C(F)(F)F)nc(NCc3ccc(F)cc3)n2)c1 -32.9%
COc1ccc(CCNC(=O)c2ccc3c(c2)nc2n3CCOC2)cc1OC -18%
CC(C)c1ccc(NC(=O)CCS(=O)(=O)c2ccc(Br)s2)cc1 -36.1%
CC1=C(C(=O)Nc2ccccc2)C(c2ccncc2)n2nc(SCc3ccccc3)nc2N1 (stereo unspecified) -9.13%
COCCCNC(=O)c1c(C)nn(-c2ccc(F)cc2)c1-n1cccc1 -4.88%
O=C(NCCS(=O)(=O)N1CCN(c2ccc(F)cc2)CC1)c1cc(=O)c2ccccc2o1 2.37%
COc1ccccc1N1CCN(S(=O)(=O)c2cc3[nH]c(=O)c(=O)[nH]c3cc2C)CC1 -5.62%
CSc1cccc(Nc2cc(C(=O)NCCCN(Cc3ccccc3)C(C)C)c3ccccc3n2)c1 -70.7%
Cc1ccc(CCNc2ncnc3onc(C)c23)cc1 -35.8%
Cc1ccc(C)c(NC(=O)C(Cc2ccccc2)N2Cc3ccccc3C2=O)c1 (stereo unspecified) -19.3%
Cc1ccc2occ(CC(=O)N(Cc3ccc(N(C)C)cc3)C3CCS(=O)(=O)C3)c2c1 (stereo unspecified) -18%
CCOc1ccc(CNC(=O)CCC(=O)N2CCSc3ccccc32)cc1 -8.54%
Cc1cc2c(cc1S(=O)(=O)N(C)CC(=O)Nc1cccc(C#N)c1)OCC(=O)N2 -16%
CC1=Nc2cc(C(=O)NC3CCCC3)ccc2Sc2ccc(Br)cc21 -41.9%
CCOC(=O)c1cccc(NC(=O)CCn2nc(C)c3c(C)n(-c4ccccc4)nc3c2=O)c1 0%
COCCCNC(=O)C1CCCN(S(=O)(=O)c2ccc3c(c2)oc(=O)n3C)C1 (stereo unspecified) -18%
CCN(CC)c1ccc(NC(=O)CN2CCN(CC(=O)Nc3ccccc3OC)CC2)cc1 -28.8%
COc1ccccc1CNC(=O)c1ccc(CN2CC(=O)N3CCCCC3C2=O)cc1 (stereo unspecified) -11.6%
Cc1ccc(C)c(NC(=O)N2CCC(N3CCN(Cc4ccc(F)cc4)C(=O)C3=O)CC2)c1 -10.4%
COc1ccccc1C(=O)NCC1(N2CCN(C)CC2)CCCCC1 -10.6%
Cc1ccccc1Nc1cc(C(=O)NC2CCCCC2)c2ccccc2n1 1.62%
CCOCCCn1c(SCC(=O)NCCCOC)nc2c(sc3ccccc32)c1=O 0%
CCOCCCNC(=O)c1c[nH]c2ccc(S(=O)(=O)Nc3cccc(Cl)c3C)cc2c1=O -27.1%
CCOC(=O)N1CCc2c(sc3c2c(=O)n(-c2ccc(Cl)cc2)c(=O)n3Cc2cccc(C)c2)C1 -9.49%
Cn1c(=O)oc2cc(S(=O)(=O)N3CCCC(C(=O)N4CCN(c5ccccc5F)CC4)C3)ccc21 (stereo unspecified) -17.5%
COc1cc(Nc2c(C#N)cnc3cc(OCCCN4CCN(C)CC4)c(OC)cc23)c(Cl)cc1Cl
Cc1ccc(Cn2c(=O)n(CC3CCC(C(=O)N4CCOCC4)CC3)c(=O)c3sccc32)cc1 (stereo unspecified) -7.38%
O=C(CC1Oc2ccc(Cl)cc2NC1=O)NCc1ccccc1 (stereo unspecified) -18%
CCOC(=O)CC(NC(=O)Cn1nnc(-c2ccc(C(F)(F)F)cc2)n1)c1ccc(C)cc1 (stereo unspecified) -21.9%
COc1ccc(NC(=O)N2CCc3c([nH]c4ccc(OC)cc34)C2c2ccc(OC)cc2)cc1 (stereo unspecified) -30.7%
COC(=O)c1cc2oc3ccccc3c2n1Cc1c(F)cccc1Cl -9.25%
CCc1cccc(NC(=O)CN2CCCN(Cc3cccc(C)c3)S2(=O)=O)c1 -6.28%
COc1ccc(N2CCN(C(=O)c3ccc4nc(N5CCC(C)CC5)sc4c3)CC2)cc1 -72%
Cc1ccc(Cl)cc1N(C)C(=O)c1cnc(N2CCOCC2)c2ccccc12 -12%
CCN(CC)C(=O)C1CCCN(c2ncnc3onc(C)c23)C1 (stereo unspecified) -19.5%
COc1cccc(-c2nc3c(C#N)c[nH]n3c2NC2CCCCC2)c1OC -0.149%
CC(NC(=O)c1sc2ncccc2c1-n1cccc1)c1ccccc1 (stereo unspecified) -14.7%
Cn1cnc(S(=O)(=O)N2CCCC(C(=O)Nc3cccc(C#N)c3)C2)c1 (stereo unspecified) -6.7%
Cc1ccc(CNCc2c(C(=O)O)c(C)n(Cc3ccc(C)cc3)c2C)cc1 -14.9%
